The BET-seq Pho4 binding data (Le et al. 2018)
The other results are listed elsewhere or left out. Values were computed here from the reads of four pooled replicates and scatter widely.

molecular target: T1, Pho4 (S. cerevisiae) (UniProt P07270); assay: relative binding free energy (BET-seq); higher = weaker binding; details: reference: library average
T1 sequence: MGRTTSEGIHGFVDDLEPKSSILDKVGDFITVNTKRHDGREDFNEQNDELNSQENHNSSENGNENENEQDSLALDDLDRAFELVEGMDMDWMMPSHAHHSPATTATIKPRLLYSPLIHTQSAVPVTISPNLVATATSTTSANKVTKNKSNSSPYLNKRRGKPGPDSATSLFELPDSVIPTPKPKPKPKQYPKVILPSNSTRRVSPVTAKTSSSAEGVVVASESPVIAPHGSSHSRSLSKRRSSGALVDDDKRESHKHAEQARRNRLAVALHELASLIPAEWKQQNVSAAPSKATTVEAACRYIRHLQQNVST

Row | Sequence | relative binding free energy
1 | GGGAGCACGTGCTGTG | -0.1 kcal/mol
2 | CGAGTCACGTGGTTAA | 0.08 kcal/mol
3 | TTACACACGTGTTTTA | 0.03 kcal/mol
4 | TTCTGCACGTGGTTCA | 0.07 kcal/mol
5 | ATTCACACGTGTATTT | 0.28 kcal/mol
6 | AAAGTCACGTGGTGTT | 0.1 kcal/mol
7 | CACTTCACGTGGTTGT | 0.2 kcal/mol
8 | GGAAGCACGTGTAGTG | -0.17 kcal/mol
9 | ATAATCACGTGGTCTG | 0.14 kcal/mol
10 | TAGGACACGTGCTATT | 0.05 kcal/mol
11 | CTTTGCACGTGTGTCG | -0.01 kcal/mol
12 | TGCATCACGTGGCGTA | 0.16 kcal/mol
13 | GACGGCACGTGGGGGG | -0.14 kcal/mol
14 | AAAGGCACGTGGGGTC | -0.21 kcal/mol
15 | GGGTTCACGTGTTTCA | 0.18 kcal/mol
16 | GGGCGCACGTGGGTGT | -0.01 kcal/mol
17 | AGGTACACGTGCGAGG | -0.02 kcal/mol
18 | GGTGTCACGTGGATGC | 0.08 kcal/mol
19 | AGTAACACGTGGGTTG | -0.07 kcal/mol
20 | TTGGACACGTGGCGAG | -0.04 kcal/mol
21 | TCTTACACGTGGTGTT | 0.12 kcal/mol
22 | CGGTGCACGTGGTCAT | -0.05 kcal/mol
23 | TAAGACACGTGAGGTA | 0.32 kcal/mol

Row | Sequence | relative binding free energy
24 | ATAGGCACGTGACAGG | -0.06 kcal/mol
25 | TGGTGCACGTGGCGCC | -0.05 kcal/mol
26 | TCATTCACGTGGAGGT | 0.24 kcal/mol
27 | TTTCTCACGTGGATGG | 0.18 kcal/mol
28 | GTTGCCACGTGAGGTG | 0.02 kcal/mol
29 | GTTTCCACGTGACGTG | 0.33 kcal/mol
30 | AAATACACGTGGTTGG | -0.15 kcal/mol
31 | TGACACACGTGTTAGG | 0.1 kcal/mol
32 | AGTTTCACGTGGTTAT | 0.24 kcal/mol
33 | AGTGTCACGTGTCGCG | 0.09 kcal/mol
34 | TTTTGCACGTGAGCTT | 0.08 kcal/mol
35 | AGTCTCACGTGTATGG | 0.16 kcal/mol
36 | CGGGACACGTGGGCTG | -0.26 kcal/mol
37 | TAAATCACGTGTGGTT | 0.2 kcal/mol
38 | ATTTGCACGTGTTGTC | 0.19 kcal/mol
39 | AGTCTCACGTGTGTGG | 0.25 kcal/mol
40 | TAGATCACGTGGTTAG | 0.19 kcal/mol
41 | AGTGTCACGTGTTTAA | 0.03 kcal/mol
42 | CTTGTCACGTGCGCGT | -0.05 kcal/mol
43 | GAGTGCACGTGGGTGG | -0.05 kcal/mol
44 | ATATCCACGTGCGGGG | 0.03 kcal/mol
45 | GTGGACACGTGGGCTA | -0.14 kcal/mol
46 | TGTCGCACGTGGTCAG | -0.21 kcal/mol

Row | Sequence | relative binding free energy
47 | CAATGCACGTGTGTAT | -0.01 kcal/mol
48 | TTGACCACGTGATGGG | 0.14 kcal/mol
49 | TATAACACGTGTTGAT | -0.05 kcal/mol
50 | ATGTGCACGTGATGGG | 0.09 kcal/mol
51 | GTGTACACGTGGCGCG | -0.04 kcal/mol
52 | GTATTCACGTGGCCGG | 0.2 kcal/mol
53 | GTTGACACGTGTATAA | 0.07 kcal/mol
54 | GTTAGCACGTGGCTGG | -0.12 kcal/mol
55 | TATGGCACGTGGTGTC | -0.24 kcal/mol
56 | CAGTTCACGTGATGTT | 0.39 kcal/mol
57 | TATCGCACGTGGTTGT | -0.12 kcal/mol
58 | TATTACACGTGTAGGT | 0.18 kcal/mol
59 | TTAGGCACGTGGTACG | -0.26 kcal/mol
60 | TTATGCACGTGTGTTA | 0.04 kcal/mol
61 | TGGTGCACGTGTTTAA | -0.11 kcal/mol
62 | TTTGACACGTGCGTGC | -0.07 kcal/mol
63 | GTAGTCACGTGGGTGG | -0.02 kcal/mol
64 | CTTTGCACGTGGGTTG | -0.15 kcal/mol
65 | TTATGCACGTGCGGGT | 0.01 kcal/mol
66 | GCTCTCACGTGGGTGG | 0.15 kcal/mol
67 | GGGTCCACGTGGCAGG | -0.11 kcal/mol
68 | ATTCACACGTGCGGGG | 0.02 kcal/mol
69 | AGCAACACGTGGTGGG | -0.12 kcal/mol

Row | Sequence | relative binding free energy
70 | TTGCTCACGTGGCAGG | 0.07 kcal/mol
71 | TGTCGCACGTGCGTGA | -0.16 kcal/mol
72 | GGAGCCACGTGGGGTG | -0.33 kcal/mol
73 | GGTGTCACGTGGCCGG | 0.04 kcal/mol
74 | CTGTTCACGTGTGTCG | 0.27 kcal/mol
75 | TGAAGCACGTGTTTAG | -0.08 kcal/mol
76 | AATGGCACGTGATTTG | 0.15 kcal/mol
77 | GTATTCACGTGGATGT | 0.27 kcal/mol
78 | ATGTACACGTGTGTCA | -0.03 kcal/mol
79 | GTTATCACGTGTATAA | 0.11 kcal/mol
80 | TATTGCACGTGGGAGC | -0.04 kcal/mol
81 | GGGCACACGTGGAGGC | 0.16 kcal/mol
82 | AAAGTCACGTGGGCTG | -0.04 kcal/mol
83 | ATAGACACGTGGTGTA | -0.16 kcal/mol
84 | TCATGCACGTGGGTAG | -0.21 kcal/mol
85 | TGTCGCACGTGGGAGG | -0.12 kcal/mol
86 | AATTGCACGTGTGTTA | 0.11 kcal/mol
87 | TTACTCACGTGGTCTG | 0.1 kcal/mol
88 | GTTTACACGTGATAAT | 0.19 kcal/mol
89 | GTTTACACGTGGATTA | 0.04 kcal/mol
90 | TTTATCACGTGGGAGA | 0.03 kcal/mol
91 | CGTAGCACGTGGGGTT | -0.11 kcal/mol
92 | TAGATCACGTGTTTTG | 0.2 kcal/mol

Row | Sequence | relative binding free energy
93 | GTGATCACGTGGGGGT | 0.02 kcal/mol
94 | TGGGTCACGTGCAAGG | 0.13 kcal/mol
95 | TTTCTCACGTGAGTTG | 0.35 kcal/mol
96 | TTAGGCACGTGGGGTC | -0.2 kcal/mol
97 | ATTGACACGTGCTTGG | -0.1 kcal/mol
98 | TCATACACGTGGTATG | -0.03 kcal/mol
99 | TCCGTCACGTGTGTGG | 0.03 kcal/mol
100 | TTATGCACGTGCGTAG | -0.1 kcal/mol
101 | CAAGTCACGTGGGTAA | 0.11 kcal/mol
102 | ATTTTCACGTGGAGTC | 0.23 kcal/mol
103 | ACTGTCACGTGTGGTG | 0.08 kcal/mol
104 | GGTGTCACGTGATTCG | 0.23 kcal/mol
105 | GTATTCACGTGAGTTG | 0.44 kcal/mol
106 | GCGGACACGTGTTGTA | 0.11 kcal/mol
107 | GGTAGCACGTGGGTCG | -0.18 kcal/mol
108 | TCGTACACGTGGTTTT | 0.04 kcal/mol
109 | AATGACACGTGGGTTA | -0.12 kcal/mol
110 | GAGGGCACGTGTTGTC | -0.05 kcal/mol
111 | GAGCACACGTGGTGGA | 0.13 kcal/mol
112 | CGATACACGTGGTTGT | -0.04 kcal/mol
113 | TAGTGCACGTGTATGA | 0.07 kcal/mol
114 | GGTTACACGTGTGTAT | 0.22 kcal/mol
115 | TGCGACACGTGGTTGA | 0.09 kcal/mol
